Experimental data: PubChem BioAssay AID720708 (National Center for Advancing Translational Sciences (NCATS), 2013)
Out of some 360,000 compounds screened, about 660 (0.18%) were called active. The shares of active, inactive and inconclusive entries below differ from those in the screen. Calls follow the shape of the dose curve; as a rule, active = well fitted inhibition curve with a large enough effect; inconclusive = small, poorly fitted or top-dose-only effect; inactive = no such curve, though single readings can be large or run the other way. Potencies of inconclusive entries are left out as doubtful fits.

molecular target: Rap guanine nucleotide exchange factor 4 (Homo sapiens) (UniProt Q8WZA2); test: qHTS for Antagonist of cAMP-regulated guanine nucleotide exchange factor 2 (EPAC2): primary screen; conditions: EPAC2 GEF exchange of Rap1B-BODIPY-GDP, fluorescence; series mostly up to 114 µM; also: nearly all actives have a fitted effect of over 45% in size
Sequence of UniProt Q8WZA2 (Q8WZA2 whole entry, looked up): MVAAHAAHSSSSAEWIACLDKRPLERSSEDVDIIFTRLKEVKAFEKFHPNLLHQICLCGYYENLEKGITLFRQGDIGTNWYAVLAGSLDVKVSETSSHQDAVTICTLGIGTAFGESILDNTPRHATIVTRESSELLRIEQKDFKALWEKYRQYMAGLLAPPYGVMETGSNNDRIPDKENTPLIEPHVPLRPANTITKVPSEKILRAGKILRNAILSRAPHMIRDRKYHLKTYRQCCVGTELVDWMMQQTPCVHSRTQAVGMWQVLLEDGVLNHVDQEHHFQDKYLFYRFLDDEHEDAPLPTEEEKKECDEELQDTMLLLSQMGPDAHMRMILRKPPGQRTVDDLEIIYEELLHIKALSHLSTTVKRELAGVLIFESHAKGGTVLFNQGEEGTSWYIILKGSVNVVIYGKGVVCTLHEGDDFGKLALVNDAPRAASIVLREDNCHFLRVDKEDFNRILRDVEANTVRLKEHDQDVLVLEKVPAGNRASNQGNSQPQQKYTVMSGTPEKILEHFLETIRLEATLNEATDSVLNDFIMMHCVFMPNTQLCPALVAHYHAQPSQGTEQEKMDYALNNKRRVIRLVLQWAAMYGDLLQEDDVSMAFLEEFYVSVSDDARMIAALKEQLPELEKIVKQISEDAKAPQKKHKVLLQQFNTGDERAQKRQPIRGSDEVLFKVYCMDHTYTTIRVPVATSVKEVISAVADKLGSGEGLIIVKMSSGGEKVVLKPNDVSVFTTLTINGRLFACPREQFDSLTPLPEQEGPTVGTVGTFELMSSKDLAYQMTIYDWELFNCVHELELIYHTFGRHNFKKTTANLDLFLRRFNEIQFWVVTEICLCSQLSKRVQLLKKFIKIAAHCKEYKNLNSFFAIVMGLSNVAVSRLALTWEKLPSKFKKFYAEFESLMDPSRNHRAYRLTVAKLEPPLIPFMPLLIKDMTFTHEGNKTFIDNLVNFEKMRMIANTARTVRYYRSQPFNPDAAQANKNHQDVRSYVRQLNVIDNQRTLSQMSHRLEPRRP
Potency is read from the fitted curve at half-maximal effect; tags tell the direction and shape of the fitted curve.

Question: Which Potency does the source give for `O=C(CN1C(=O)/C(=C2\SC(=S)N(CCS(=O)(=O)O)C2=O)c2ccccc21)Nc1cccc(Br)c1` here?
Answer: inconclusive [inhibitor, partial curve]

Question: For `COC(=O)c1ccc2nc(-c3ccc(C)cc3)c(Cc3ccc(C)cc3)n2c1`, which Potency is on record?
Answer: inconclusive [inhibitor, full curve]

Question: Which Potency does the source give for `COc1cc(OC)cc(-c2nnc(NC(=O)CCS(=O)(=O)c3ccc(F)cc3)o2)c1` here?
Answer: inconclusive [inhibitor, single point]

Question: With `Cc1ccc(S(=O)(=O)N2CCCN(S(=O)(=O)c3ccc(C(F)(F)F)cc3)CC2)cc1` as the molecule, how does the Potency read?
Answer: inactive

Question: With `COc1ccc(C(=O)Sc2nncc3ccccc23)cc1` as the molecule, how does the Potency read?
Answer: inconclusive [inhibitor, partial curve]

Question: With `NS(=O)(=O)c1ccc(N/N=C/c2ccccc2Br)cc1` as the molecule, how does the Potency read?
Answer: inconclusive [inhibitor, partial curve]

Question: How did the Potency turn out when `CCCS(=O)(=O)c1c(S(=O)(=O)CCC)c2ccc(C(C)=O)cn2c1C(=O)OC` was run?
Answer: inconclusive [inhibitor, partial curve, poor fit]

Question: How did the Potency turn out when `C[C@H]1CN([C@@H](C)CO)C(=O)c2cccc(NC(=O)c3ccc(-c4nccs4)cc3)c2O[C@@H]1CN(C)C(=O)Nc1cccc2ccccc12` was run?
Answer: inactive

Question: `CCOC(=O)c1cc2c(=O)n3ccccc3nc2n(CC2CCCO2)c1=NC(=O)/C=C/c1ccccc1` (configuration not stated) was tested. Which Potency did it give?
Answer: inconclusive [inhibitor, partial curve]

Question: `CC1CCc2c(c3ccccc3n2C(=O)CCl)C1` (configuration not stated) was tested. Which Potency did it give?
Answer: inconclusive [inhibitor, partial curve]

Question: `O=C(NCCCc1ccccc1)c1cc(COc2c(F)cccc2F)on1` was tested. Which Potency did it give?
Answer: inconclusive [inhibitor, single point]

Question: With `Cc1ccc(C(=O)C(C)OC(=O)c2nc(Cl)ccc2Cl)cc1` (configuration not stated) as the molecule, how does the Potency read?
Answer: inactive

Question: For `COc1cccc(S(=O)(=O)N(C)C[C@H]2Oc3cc(Br)ccc3S(=O)(=O)N([C@@H](C)CO)C[C@H]2C)c1`, which Potency is on record?
Answer: inconclusive [inhibitor, single point]

Question: How did the Potency turn out when `Cc1nc(N2CCN(c3ccccn3)CC2)c2c(C)c(C(=O)Nc3ccc(F)cc3F)sc2n1` was run?
Answer: inactive

Question: With `Cc1cc(Br)cn2c(Cc3ccsc3)c(-c3ccco3)nc12` as the molecule, how does the Potency read?
Answer: inconclusive [inhibitor, single point]

Question: `CNc1nc(Cl)c(SC)c(NCc2ccc(F)cc2)n1` was tested. Which Potency did it give?
Answer: inconclusive [inhibitor, partial curve]

Question: With `Cc1ccccc1CN1C[C@H]2CON(C)[C@H]2C[C@H]1c1cccc(Br)c1` as the molecule, how does the Potency read?
Answer: inconclusive [inhibitor, full curve]
